# Reference: the supplement of paper PMC12217912
# The other results are listed elsewhere or left out. The full chains were built here from the parent and the listed change. Inactive controls read about 0.05.
# B1: TEV protease; numbered along this chain (parent)
# chain: MGESLFKGPRDYNPISSSICHLTNESDGHTTSLYGIGFGPFIITNKHLFRRNNGTLVVQSLHGVFKVKDTTTLQQHLVDGRDMIIIRMPKDFPPFPQKLKFREPQREERICLVTTNFQTKSMSSMVSDTSCTFPSGDGIFWKHWIQTKDGQCGSPLVSTRDGFIVGIHSASNFTNTNNYFTSVPKNFMELLTNQEAQQWVSGWRLNADSVLWGGHKVFMVKPEEPFQPVKEATQL
# Variants of: B1
# Assay: raw area under fraction-flipped curve 0-4 h after induction (AUC4h, not background-subtracted), DNA-recorder readout of cleavage of the substrate (dimensionless); higher = more cleavage of the substrate by the protease variant
# Conditions: temperature: 34 °C; time window: 0-4 h after rhamnose induction
# Method: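 In vivo DNA recorder in E. coli TOP10(DE3) ΔrhaA at 34 °C. Each TEVp single-site mutant (parent TEVp 0) is paired with a single-site variant of the 7-mer TEVs (canonical ENLYFQ|S). The substrate sits between flexible linkers in a Bxb1-sfGFP-TEVs-SsrA fusion, so cleavage stabilises Bxb1 and speeds flipping of a recombination array, read by NGS. The value is the raw area under the fraction-flipped curve over 0-4 h after rhamnose induction (AUC4h), with ≥20 reads per time point. It is not background-subtracted; inactive controls average about 0.047.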
# 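Further: Bxb1 expression induced with 0.2% (w/v) L-rhamnose at OD600 near 0.5, cultures sampled hourly, flipped fraction per protease–substrate barcode pair counted by paired-end Illumina sequencing.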
Variant,area with substrate ENLYFQA,area with substrate ENLYFQC,area with substrate ENLYFQH,area with substrate ENLYFQI,area with substrate ENLYFQK,area with substrate ENLYFQL,area with substrate ENLYFQP,area with substrate ENLYFQQ,area with substrate ENLYFQR,area with substrate ENLYFQS,area with substrate ENLYFQT,area with substrate ENLYFQV,area with substrate ENLYFQW,area with substrate ENLYFQE,area with substrate ENLYFQG,area with substrate ENLYFQM,area with substrate ENLYFQN,area with substrate ENLYFQY,area with substrate ENLYFQD,area with substrate ENLYFQF
L191R,0.0667,0.0592,0.0619,0.0395,0.0555,0.0558,0.0532,0.0482,0.0347,0.0588,0.0523,0.0612,0.0543,,,,,,,
L191H,0.0648,0.0639,,,0.0505,0.0513,0.0629,,0.0554,0.0643,0.0438,,0.0618,0.0749,0.0674,0.0398,0.0617,0.0575,,
P9D,,0.106,0.118,,0.064,0.0588,0.0358,,0.0495,0.0995,,,,,0.0785,0.0979,0.0552,,,
W212Y,0.116,0.102,,0.0565,0.061,0.0568,,,,0.12,,,,,,0.0577,,,,
P225Y,0.107,,0.0768,0.0635,0.0583,,,,0.071,0.094,0.0731,,,,,0.0963,0.0787,,0.0461,
E223P,0.0664,0.0991,,0.0725,,0.0641,,,0.0539,0.09,0.0745,,0.0468,,0.0909,0.0725,,0.0941,0.064,
L33A,,0.101,,0.0668,0.0384,0.0377,,,,0.0934,0.073,,0.0601,,0.0949,,,,0.0667,0.0648
N53P,,0.0851,,0.0509,,0.0602,,0.0595,,0.0789,0.0707,,0.06,,0.0762,,,,0.0701,
N53K,,0.0944,,0.0636,0.0626,0.0607,,0.0921,0.0604,0.092,,0.0657,,,0.0868,0.0837,0.0891,0.0839,0.0782,0.056
S209Q,0.13,0.13,0.0698,0.0649,0.0576,0.0539,0.0566,0.0671,0.0757,0.109,,,0.084,0.0653,,,0.0907,,,
G214L,0.0728,0.0975,0.059,,0.0678,0.0667,,0.0539,,0.0769,,,0.0509,,,0.0478,0.0647,,,
V229N,0.0881,0.11,,0.0588,,0.0563,,0.0827,0.0591,0.107,0.0691,0.0394,0.079,,0.104,0.079,,,0.0663,
E195W,0.0846,,0.0725,,0.0572,,,,0.0633,0.0856,0.0754,,,,,0.0693,,,,
E195I,0.0835,,,,0.0428,0.0387,,,0.0609,0.085,0.0724,,0.0572,,,,0.0679,,,0.0872
E195Q,0.074,,,0.0605,,,0.0564,,,0.0998,0.0637,,0.0654,,,,0.0733,,0.0543,
T23F,,0.087,0.0818,0.046,0.0514,0.0357,0.0378,0.082,0.0776,0.0909,,0.0375,0.0707,,,0.0818,0.0707,0.0965,,
